Experimental data published in paper PMC4336329 (PLoS ONE, 2015).
Screen size: about 310,000 compounds; about 14,000 (4.5%) showed an effect of 50% or more. The effect is printed as a negative number. This is one part of the list.

biological target: human ether-à-go-go-related gene (hERG) potassium channel (human, UniProt Q12809); test: primary screen, population patch clamp on CHO cells stably expressing hERG
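Further: peak tail current of the secondary pulse compared with the same well before compound.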

Sequence of human ether-à-go-go-related gene (hERG) potassium channel (Q12809 whole entry, looked up): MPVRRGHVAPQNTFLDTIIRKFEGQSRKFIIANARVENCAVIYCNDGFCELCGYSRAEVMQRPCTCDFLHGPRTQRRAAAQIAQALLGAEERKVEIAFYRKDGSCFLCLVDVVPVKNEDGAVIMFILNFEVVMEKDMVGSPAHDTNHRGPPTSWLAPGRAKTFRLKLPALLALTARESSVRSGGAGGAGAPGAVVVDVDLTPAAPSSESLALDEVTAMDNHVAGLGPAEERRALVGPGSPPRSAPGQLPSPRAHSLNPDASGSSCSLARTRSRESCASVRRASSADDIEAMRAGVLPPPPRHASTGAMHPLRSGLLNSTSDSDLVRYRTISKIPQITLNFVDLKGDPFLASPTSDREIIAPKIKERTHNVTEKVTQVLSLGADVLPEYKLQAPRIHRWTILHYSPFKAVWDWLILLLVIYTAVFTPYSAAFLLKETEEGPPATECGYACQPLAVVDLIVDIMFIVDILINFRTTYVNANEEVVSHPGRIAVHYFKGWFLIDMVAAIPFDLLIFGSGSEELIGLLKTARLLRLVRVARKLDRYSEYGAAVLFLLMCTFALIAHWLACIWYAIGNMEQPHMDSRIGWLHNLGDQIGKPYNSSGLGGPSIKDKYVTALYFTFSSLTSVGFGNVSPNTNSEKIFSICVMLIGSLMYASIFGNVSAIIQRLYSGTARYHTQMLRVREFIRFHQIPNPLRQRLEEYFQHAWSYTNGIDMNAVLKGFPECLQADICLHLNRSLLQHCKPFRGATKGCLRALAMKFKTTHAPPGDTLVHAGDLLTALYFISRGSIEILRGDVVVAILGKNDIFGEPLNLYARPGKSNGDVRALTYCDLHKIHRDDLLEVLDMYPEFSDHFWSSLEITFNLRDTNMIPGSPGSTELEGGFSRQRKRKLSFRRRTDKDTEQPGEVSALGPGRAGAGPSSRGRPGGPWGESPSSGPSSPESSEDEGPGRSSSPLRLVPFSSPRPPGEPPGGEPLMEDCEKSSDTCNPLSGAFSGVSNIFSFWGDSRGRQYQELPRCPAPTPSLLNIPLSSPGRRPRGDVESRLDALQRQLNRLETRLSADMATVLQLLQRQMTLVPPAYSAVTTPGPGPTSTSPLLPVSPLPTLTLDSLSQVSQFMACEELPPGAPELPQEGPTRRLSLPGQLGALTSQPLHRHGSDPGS

Row | Compound | hERG current change (%, negative = inhibition) at 10uM [%]
1 | N#Cc1c(N2CCCCC2)nc(N2CCCCC2)c2c1CCN(Cc1ccccc1)C2 | -3.12
2 | Cc1ccc(-n2nnc3c(=O)n(Cc4cccc(C)c4)cnc32)cc1 | 7.66
3 | O=C(N/N=C\C=C\c1ccc([N+](=O)[O-])o1)c1cccs1 | 6.16
4 | CCCSC1=C(C#N)C2(CCCCC2)C(C#N)=C(N)N1 | 27.9
5 | CC(=O)NCCC(=O)Nc1cc(S(=O)(=O)N2CCOCC2)ccc1N1CCCC1 | 17.5
6 | CN(C)S(=O)(=O)N1CCc2ccc(NC(=O)c3ccc(C(F)(F)F)cc3)cc2C1 | 25.4
7 | CC(=O)c1c(C(C)=O)c(C)n(NC(=O)c2ccccc2Cl)c1C | 9.86
8 | CCN(C(=O)c1cc(Cl)ccc1OC)c1ccccc1 | 2.78
9 | COC(CNC(=O)[C@H](Cc1ccccc1)N1Cc2ccccc2C1=O)OC | 10.1
10 | CCCNC(=O)N1[C@H]2CC[C@@H]1C(C(=O)OC)=C(c1c(C)noc1C)C2 | 16.4
11 | CCOc1cc(Br)ccc1S(=O)(=O)N1CCC(C(N)=O)CC1 | -5.26
12 | O=C(Nc1cc(N2CCOCC2)ncn1)c1ccc(F)cc1 | -9.31
13 | O=C(c1ccc(N2CCOCC2)nc1)N1CCOCC1 | 6.45
14 | CCN(CC)C(=O)CSc1nc(O)cc(=O)n1CC | 5.51
15 | CCN(CC)C(=O)C1CCCN(C(=O)Nc2ccccc2)C1 (stereo not shown) | -6.28
16 | N#CC1=C(S)N(c2ccccc2)C(c2ccc(-c3ccccc3Cl)o2)NC1=O (stereo not shown) | 13.1
17 | CCN(Cc1ccncc1)C(=O)c1cc(COc2c(F)cccc2F)on1 | -36
18 | O=C(C1CCN(S(=O)(=O)c2ccc(Cl)cc2)CC1)N1CCC1 | 2.3
19 | CCC(C)NC(=O)c1ccc(-n2c(=S)[nH]c3ccccc3c2=O)cc1 (stereo not shown) | 26.8
20 | CCC(=O)c1cc(F)ccc1OCC(=O)Nc1ccc2c(c1)OCCO2 | -1.84

Row | Compound | hERG current change (%, negative = inhibition) at 10uM [%]
21 | Cn1c(=O)c2[nH]c(=O)cnc2n(C)c1=S | 20.7
22 | Cc1ccccc1Oc1ncnc2oc(-c3ccccc3)cc12 | 20.4
23 | CCC1=NN(C(=O)c2ccc(Cl)cc2)C(O)(c2ccc(C)cc2)C1 (stereo not shown) | -0.418
24 | Cc1nnc(NC(=O)CSC2CCCCC2)s1 | -1.03
25 | COCc1c(C(=O)OC)nnn1-c1ccccc1 | -3.86
26 | O=C(Nc1nnc(-c2ccccn2)o1)c1ccc(Br)cc1 | 4.65
27 | CN1C(=O)/C(=C/c2ccccc2F)Sc2ccc(C(=O)NCC3CCCO3)cc21 (stereo not shown) | -25.9
28 | O=C(c1cn(-c2ccccc2)nc1-c1ccc(Cl)s1)N1CCOCC1 | -20.9
29 | CCN1CCN(Cc2ccc(NC(=O)c3ccc(C)c(NC(=O)c4ccnnc4)c3)cc2C(F)(F)F)CC1 | 13
30 | O=C(Nc1ccccc1)Nc1nnc(CSCc2ccccc2Cl)s1 | 6.19
31 | CN(CC(=O)Nc1ccc(F)cc1)C(=O)c1ccccc1OCc1ccc(F)cc1 | -3.3
32 | C=CCc1ccc(OC)cc1 | 9.91
33 | CC1CCC(C(=O)NC(C(=O)Nc2ccccn2)C(C)C)CC1 (stereo not shown) | 9.1
34 | Cl.Nc1c2c(nc3ccccc13)CCCC2.O | -42.3
35 | Cc1oc(-c2ccccc2)cc1C(=O)NC1CCN(Cc2ccccc2)CC1 | 11.1
36 | CC1(C)CC(=O)C=C(C(=O)N2CCCC(C(=O)c3cccc(Cl)c3)C2)O1 (stereo not shown) | -31
37 | O=C(CSC1c2ccccc2-c2ccccc21)N/N=C/c1ccccc1C(=O)O | -9.61
38 | O=C(Nn1c(Cc2cccs2)nc2ccccc2c1=O)c1ccc(F)c(F)c1 | 18.1
39 | Cc1ccc(N2CCN(C(=O)c3nn(C)c4c3CS(=O)(=O)c3ccccc3-4)CC2C)cc1 (stereo not shown) | -30.3
40 | COc1ccc(-c2oc(NC(C)=O)c(C#N)c2-c2ccc(OC)cc2)cc1 | -5.55

Row | Compound | hERG current change (%, negative = inhibition) at 10uM [%]
41 | COc1ccc(/C=N/N2C(=O)c3ccccc3C2=O)cc1 | 2.53
42 | COc1ccc(-c2nc3c(s2)CN(S(C)(=O)=O)CC3)cc1OC | 15.2
43 | CC(=O)c1ccc(OCc2cc(C(=O)NCCn3nc(C)cc3C)no2)cc1 | 1.56
44 | CC(C)(C)CNC(=O)[C@]1(C)CCC[C@@]2(C)C3CC[C@@]4(C)C[C@]3(CCC21)CC4=O (stereo partly shown) | -0.0524
45 | COc1ccc(OCC(O)Cn2c(=N)n(Cc3ccccc3)c3ccccc32)cc1.Cl (stereo not shown) | -73.5
46 | C=CCc1ccc(OCCCCN2CC(C)OC(C)C2)c(OC)c1.O=C(O)C(=O)O (stereo not shown) | -25.8
47 | O=C(Cc1ccccc1)NC(=S)Nc1cc(C(F)(F)F)ccc1Cl | 13.8
48 | Cc1ccc(-c2cnc3ccccc3n2)cc1C | 5.03
49 | CN(C)c1nc2n(c(=O)n1)C(C#N)CS2 (stereo not shown) | 0.755
50 | Cc1ccc(C)c(C2=CSC3=NS(=O)(=O)CCN23)c1 | 12.3
51 | CC(=O)c1ccc(OCc2cc(C(=O)N(C)Cc3ncc(C)[nH]3)no2)cc1 | 0.177
52 | O=c1nc(Nc2ccccc2)oc2ccccc12 | 2.79
53 | CCCC(=O)Nc1ccc(C)c(O)c1 | 4.76
54 | COc1ccc(CCNCC(=O)Nc2ccc(C)c(Br)c2)cc1OC.Cl | -33.1
55 | Nc1c(S(=O)(=O)c2cccs2)c2nc3ccccc3nc2n1/N=C/c1cccc(O)c1 | 2.57
56 | Cc1ccc(-c2cc(C(F)F)nc(NCc3cccs3)n2)cc1 | 3.73
57 | O=C1NC(=O)C(CCc2ccncc2)(CCc2ccncc2)C(=O)N1CCc1ccccc1 | -71.7
58 | Oc1ccc(/C=N/NC(=S)N2CCOCC2)cc1 | 10.1
